The full ranking holds about 33,000 sequences; the median of “E-score (-0.5 to 0.5)” is about -0.054, and the highest 2% start at about 0.39. The list shows a part of the results.
Biological target: Ylr278c (UniProt Q05854)
Test: PBM E-score (8-mer binding enrichment) (E-score (-0.5 to 0.5)); higher = stronger / more preferred TF binding; most listed sequences are background and not binding sites
Conditions: protein concentration: 200 nM; construct: GST-DNA-binding domain
Summary of the method: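 Masliner-normalised scans of fluorescent anti-GST signal were the basis for scoring. That signal came from GST-tagged yeast transcription factors applied at about 100-200 nM to double-stranded universal all-10-mer Agilent arrays on fresh or once-stripped slides. Each ungapped eight-base word, pooled with its reverse complement, received an E-score from the Universal PBM Analysis Suite.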

Sequence | PBM E-score
ATCGGTTG | -0.0479
ATGAGGCG | 0.00606
ACGATAGT | -0.235
CTGGGGGC | -0.256
TGATCACA | -0.139
AGCAATGA | -0.0636
GGAGTTCA | 0.341
AGCAACGG | 0.191
CCTACGTA | -0.204
AAATGGCG | 0.101
CTGGATCA | -0.223
CGAATTCA | 0.219
TAGAACTA | -0.0561
CGGCAATA | 0.294
AGCCAGGC | -0.181
ATCCTACC | -0.0503
CTCGCAGA | -0.186
AGCCGGTG | 0.246
GAGGGTAC | -0.241
AGGTGATC | -0.0481
ACGTCCAT | -0.237
GGAATTGA | 0.298
ACTAATGA | -0.0645
TCCGCTCA | 0.263
ATTGAAAC | -0.0378

Sequence | PBM E-score
GGGTTACA | 0.0391
ACGTATTA | 0.114
CACTCGTA | -0.184
GCACCTTA | -0.143
CAGGATTC | -0.11
AGCGCAGG | 0.169
CGATCACG | 0.154
CGGCCACG | -0.0321
CGCGAAGC | 0.124
ACAGTCTC | -0.185
CGGACTAC | 0.386
CAGCAGGC | 0.0553
ACTTAGAG | -0.275
GTAGTCGA | -0.0238
AGTACATG | -0.00745
ACCTGACA | -0.13
GGGTGTAC | 0.0459
ATTACTGG | -0.158
ACTATGTG | -0.164
CCCAGTCA | -0.242
CCGGATCC | 0.42
CAGCGGTC | -0.0145
ACTTCCGG | 0.435
ACCTGAAA | -0.126
AAGGGAGC | -0.188

Sequence | PBM E-score
AAGCATGT | -0.0735
GATAAAGC | 0.0237
CAAACGAA | -0.169
AGTGGTCA | -0.116
ATGAGGTC | -0.106
CCACCCGG | 0.202
AACAAACT | -0.0952
ACTCAAAG | -0.129
CCTCGACC | -0.223
CTCAGCGA | -0.0593
CCGGATGA | 0.303
AAGCGTGA | -0.13
AGCAAGCC | -0.111
ACATGCAG | -0.134
CTACCGAG | -0.0823
CTTTAATA | 0.0142
AGACAAAC | -0.0425
CGTCGAAC | -0.298
CTAGTGGC | -0.215
AACAGGTA | -0.116
AATAGGCC | -0.00231
CAGTTCCG | 0.348
AAATTTGG | -0.163
ATAAGCGC | -0.172
ATGAGTCC | 0.077

Sequence | PBM E-score
AGAGCCAT | -0.21
GCCAGTCC | 0.154
AGACCCCG | 0.273
CTGCACTC | 0.0214
CCCACGTC | -0.086
GACAAAGC | 0.118
AATGAGGG | -0.129
CTTGCACA | -0.107
CGCGGCAG | 0.203
ACTGTTTC | -0.0349
AGCCCGAC | 0.152
ACCTATCT | -0.157
GACCCCTA | -0.298
GATCGAGC | 0.112
AGCCTAAG | -0.224
TATCGATA | -0.194
ACCTGGAT | -0.113
GGAGTAGA | 0.185
ACGCGTAT | 0.00763
GTTGTCTA | -0.00467
ATCGACAG | -0.00817
CACACAGA | -0.181
AGCTGGTC | -0.294
AACCTATA | -0.065
CGTCTAAG | -0.11

Sequence | PBM E-score
ACTGTCCA | -0.23
CCAAGACG | -0.096
CTTGTCGA | -0.383
CACTCTGG | -0.148
AGCCAATA | -0.216
AAATAGTC | 0.0388
GAGAAGGC | -0.073
CGAGGTGA | -0.0625
CACTCCCC | 0.268
CCATGGGG | -0.118
GGAATCTA | 0.105
AACTTGGG | 0.084
GACCGCCA | 0.0962
CGTGAGTA | -0.0804
AAGCTCGC | -0.0769
CACCACCC | 0.0293
CAACCGCA | 0.0229
ATGATCTC | -0.114
CGTACTTA | -0.0725
AGCGCTGG | -0.0997
AGGCCGAT | 0.284
AACTTCCA | 0.0686
AATCCATT | -0.0189
ATACATCC | 0.109
CAATTTCC | 0.338

Sequence | PBM E-score
GATGCAGC | -0.0252
CAACTAGG | -0.156
AAGCTAAC | -0.181
ATATTGAG | 0.0101
CTCCCTGA | -0.119
CACCAAAG | 0.00548
CTACCTGA | -0.186
CCGTCTTC | 0.212
AATTGCCT | -0.0482
AGACCCAT | -0.229
ACGGAGAA | 0.434
CGGGAGCA | 0.108
CACTTTGC | -0.11
GGTGCAGA | -0.112
ATGAACCC | 0.00089
TATGTCCA | -0.128
GCAGCAAC | -0.0598
CCCGTACA | -0.145
ACGCTTCT | -0.0866
GATAGCTA | -0.149
CGACTGAC | -0.171
GTACCAGA | -0.28
CAAATATC | 0.079
ATCTCGTG | -0.129
ATTCCCCC | 0.162

Sequence | PBM E-score
TGGTTTAA | -0.178
ATACGCAG | -0.217
CACGCCCC | 0.0123
ATCACTCC | 0.23
GAGCTGGA | 0.0426
GCCAACAC | 0.0249
GTGCAGTA | 0.0688
CAATCTTC | 0.0146
AGATAGCG | -0.176
AACGACCG | -0.109
AGTAAATA | 0.00217
ATCTCTGC | -0.138
GTTTGCAA | -0.0089
AGGTTGTC | -0.247
CGACGCTC | 0.149
ATATTTTC | 0.0689
ACGCTGTC | -0.0394
AAGGCCTC | -0.154
ACTCAAGA | -0.178
CTGCACAC | -0.171
CTGGGCCC | -0.096
CTACGAGC | -0.132
CCTAGTCG | -0.282
CGATTCGA | 0.00583
CCGCGCAA | 0.231

Sequence | PBM E-score
AATGCCCC | 0.0688
ACACTAGT | -0.206
ATGGCTTG | -0.164
ATTTACTG | 0.0212
AACCTGTG | -0.269
AATTGGGA | 0.037
TAACGCTA | -0.054
AACAATGT | -0.11
AAGTTGGG | -0.16
CTCCGAGA | 0.452
TACCTCTA | -0.217
CAGGGAGA | -0.224
ACGACGGA | 0.301
GGAAACTA | 0.0278
ATTTCGCG | 0.214
AACTCTGC | -0.163
CGAGGCAG | -0.0505
ATTTCAAC | 0.0433
TCATGCGA | -0.0723
GAAAACTC | 0.182
ATTCGTTC | 0.102
ATCTGAGC | 0.00063
CTGAGATC | -0.196
AGAAGGAC | -0.224
GTTCATTA | -0.0496

Sequence | PBM E-score
GTTTAGAA | 0.00196
CAGTCTTA | -0.268
GGCCCGCC | 0.159
GAAAATAA | -0.0861
CATTGCTC | 0.152
GAGACCCA | -0.091
ACCAGGTG | -0.276
AACTAAGC | -0.0826
CTGGCGAA | -0.242
CCACAGGG | -0.153
AAGTCGAG | -0.374
AGAAGGTA | -0.00249
AGTTGAGC | -0.117
CGTGGTCC | 0.021
CCTATGAC | -0.246
AAAATGCT | 0.0133
ATCAGTGA | -0.0659
GGAGTTAA | 0.312
CGATGTCC | 0.321
GAGGGGGC | -0.178
ATACGCCC | 0.0509
CATTACTA | -0.203
AGGTTCTA | -0.184
ATCCACGA | -0.27
CAAGCAGC | -0.151

Sequence | PBM E-score
CACTGTAA | -0.175
CTGACACA | -0.193
ATGTTCAG | -0.277
ACAAGAGT | -0.109
ATAAGAAG | 0.0772
CGCGTCTA | -0.0804
AGCAACAG | -0.0455
GCTCCGGA | 0.464
ACGGTCTA | -0.147
ACGTATTG | -0.11
GCACGGAC | 0.343
TGCTTACA | -0.23
AGACCCCA | -0.0081
ACCGGAGG | 0.441
ATGAGACG | -0.035
TGAGCCCA | -0.141
ACAGAGGA | -0.18
ACGGATCG | 0.142
AGGATCGG | 0.243
AGACCCGC | 0.0287
GATCAGCA | -0.0462
TAAATCAA | -0.053
GAAATCAA | -0.0183
CAGTTCGC | -0.025
AATAAAGC | 0.0162

Sequence | PBM E-score
CATATTGG | -0.156
CGATAGAA | 0.0452
CTTGGCGC | 0.0638
GTAGGAAA | -0.0689
GCTCCGTA | 0.405
ATATATAC | 0.0724
CATTCAAA | 0.0818
AGCTCCCG | 0.0891
ATGCAACA | -0.311
CACAGTCG | -0.188
AACCAGGG | -0.155
TATATCCA | -0.171
AAAGCTGG | -0.262
GTGTCAAC | -0.208
AGAATTTG | -0.214
AACCCAGC | -0.129
GCCTATAA | -0.116
GCGGACAC | 0.216
GCCTCAGA | -0.152
CAACCCCG | 0.397
CGAACTCC | 0.39
AATTGTCT | -0.113
TACCGATA | 0.176
AGGGTTGG | -0.0959
CAATTTTA | 0.0238

Sequence | PBM E-score
ACCACTAG | -0.218
ACCGTCAT | -0.0385
CGGCCCAG | 0.204
CCTCGACG | -0.00055
CAGGGGTA | -0.124
CGCTAGCG | -0.192
AACCTTGT | -0.291
TCTTCCCA | -0.198
AAGATGCT | -0.0321
GCGACAGC | -0.0396
AAGAATGA | -0.114
CCCGTCCG | 0.256
CCAATCCA | -0.0943
ACTCCAGC | -0.122
GACTCCCC | 0.0937
GCGGCGTA | 0.273
AACCCCAC | 0.0567
CAAGCACG | -0.132
AACCCCAT | 0.0652
ACATGGCA | -0.136
ACATTGTG | -0.153
ACGCGAAG | -0.0541
AAACACGG | 0.0382
AGAGGGGG | -0.322
AAACTACC | 0.0218

Sequence | PBM E-score
ATTAATTA | -0.128
AGGAGTGA | -0.0619
ACGTGGCC | -0.369
CGTTTCGA | -0.265
CAACCCGA | 0.104
CAGCCGGA | 0.434
AATACTGC | 0.0259
TCGAATCA | -0.25
GCCCACAA | -0.139
ACGGCACC | -0.0447
ACTCCTTA | -0.0802
CATTCCTA | -0.212
AAGTATAA | -0.0397
AGCTCGAA | 0.192
CAATGGCG | 0.162
TCGAGGCA | -0.242
GTGCCGCA | 0.0665
TCATTCCA | -0.106
GAAATGGC | 0.0487
AAAAGCGC | 0.00384
CAGTTACC | -0.116
GATAAATC | 0.132
ACGGGACT | 0.119
AACTAACC | 0.1
ATTGTCAA | -0.0784

Sequence | PBM E-score
ACCTAAGT | -0.015
CGAGAGCC | -0.0828
CAGCGGTA | 0.0697
CATAGAAG | -0.132
ACGCCGCA | 0.281
TCCCTCCA | -0.14
AGCCTAGA | -0.356
CGTAGGGC | -0.158
AATTGACA | 0.0574
CTTCGCAC | -0.164
TGGAACAA | -0.206
AATGCGCA | 0.149
AGTTACGG | 0.17
GTCTCATA | -0.0333
GTGCGTAA | -0.178
ACAAGAGC | -0.0774
CAGACAGC | -0.0585
ATGTATTG | 0.078
AATTCCTG | 0.0336
